Read counts are not given, so values of variants with three or more changes are uncertain.
B1: CPEB3 Ribozyme (parent)
chain: UAACAGGGGGCCACAGCAGAAGCGUUCACGUCGCAGCCCCUGUCAGAUUCUGGUGAAUCUGCGAAUUCUGCUGUAUAUCUC

Variants of: B1
Assay: self-cleavage, relative activity (ratio to wild type); higher = more cleavage; in vitro, sequencing
How it was run: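 Libraries of CPEB3 self-cleaving ribozyme mutants came from rounds of error-prone PCR and carried barcodes, which DNA sequencing matched to variants. In vitro transcription used T7 RNA polymerase at 37°C for 5 hours, with a further 15 min in DNase I before EDTA stopped the reaction; the ribozymes cleaved during both steps. The RNA was reverse transcribed with template switching and sequenced on Illumina. Relative activity is the cleaved/total read fraction of a variant divided by that of the unmutated ribozyme, averaged over three batches with at least 5 reads.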
For C32A C38A A45G, the self-cleavage was 0.19.
Variant C32A C50A U54A U60A has a self-cleavage of 0.2.
In the case of C32A C59U U76C U80C, the self-cleavage is reported as 0.23.
C32A G46U A47G A75G gave a self-cleavage of 0.04.
C32A U41C A64G A75U gave a self-cleavage of 0.47.
For C32A U43C A56G, the self-cleavage was 0.17.
For C32A U43C U80C, the self-cleavage was 0.27.
Work on C32A U48A U54C yielded a self-cleavage of 0.12.
With C32A U48C C81U the self-cleavage was 0.2.
In the case of C32A U60C C62G U72C C79U, the self-cleavage is reported as 0.17.
For C32G A35G U74C, the self-cleavage was 0.13.
For C32G A56G U69G G73A, the self-cleavage was 0.06.
Variant C32G C62A U72C has a self-cleavage of 0.1.
Work on C32G G36A U41A A45G U60A U66C U69A yielded a self-cleavage of 0.1.
In the case of C32G U43A A47U A64U U72C, the self-cleavage is reported as 0.06.
With C32G U43A A56G U58C A75U the self-cleavage was 0.07.
In the case of C32G U43C U69C U72C U76C U80A, the self-cleavage is reported as 0.05.
C32U A35G U72C gave a self-cleavage of 0.27.
For C32U A35U A64U, the self-cleavage was 0.13.
For C32U A45G U51A A57G U69C, the self-cleavage was 0.11.
Work on C32U A45G U51G yielded a self-cleavage of 0.25.
Variant C32U A47G A56U has a self-cleavage of 0.15.
For C32U A47G U72C U80C, the self-cleavage was 0.2.
Variant C32U A56G U72C U80C has a self-cleavage of 0.09.
C32U A64U U69C C81U showed a self-cleavage of 0.03.
With C32U A65G A75U the self-cleavage was 0.17.
In the case of C32U C34A U48C U67A, the self-cleavage is reported as 0.16.
For C32U C37U U48C U58C U60A, the self-cleavage was 0.12.
C32U C37U U49C U51A U72C gave a self-cleavage of 0.26.
In the case of C32U C40A A57G, the self-cleavage is reported as 0.12.
C32U G46A A56G C62U U66C U80A showed a self-cleavage of 0.19.
C32U U41A G46U U54C U66C U76C A77G gave a self-cleavage of 0.04.
With C32U U41A U49C U54C U58C the self-cleavage was 0.12.
C32U U41C U43A U60G gave a self-cleavage of 0.13.
C32U U41C U43C U76A A77C showed a self-cleavage of 0.04.
In the case of C32U U43C C79A, the self-cleavage is reported as 0.24.
Work on C32U U48C A57G yielded a self-cleavage of 0.24.
In the case of C32U U48C U80C, the self-cleavage is reported as 0.21.
C32U U49C U72A showed a self-cleavage of 0.26.
With C32U U54A G55A the self-cleavage was 0.23.
C32U U54C A56G showed a self-cleavage of 0.09.
C32U U54G G55U G61A A64G U78C gave a self-cleavage of 0.11.
Work on G33A A35C C37U U41C U60C A77G yielded a self-cleavage of 0.12.
In the case of G33A A35G C71U, the self-cleavage is reported as 0.05.
G33A A35U C38U A45G A75G gave a self-cleavage of 0.05.
With G33A A35U C62U the self-cleavage was 0.22.
G33A A35U U49G U51C U72A showed a self-cleavage of 0.08.
For G33A A35U U51A U80C, the self-cleavage was 0.22.
Work on G33A A45G A47G U54C A75U U78C yielded a self-cleavage of 0.06.
Variant G33A A47U U80A has a self-cleavage of 0.07.
G33A A56G U58C C62U showed a self-cleavage of 0.05.
In the case of G33A A56U U58C U69C, the self-cleavage is reported as 0.15.
Variant G33A A64G C81U has a self-cleavage of 0.22.
Work on G33A C38U C62G yielded a self-cleavage of 0.22.
For G33A C62A A65U, the self-cleavage was 0.31.
For G33A G36A U43A U49C A77U, the self-cleavage was 0.07.
G33A U41A A56U showed a self-cleavage of 0.41.
G33A U41C U43C A57G A75G showed a self-cleavage of 0.
Variant G33A U48C U54C has a self-cleavage of 0.34.
With G33A U49A C68A the self-cleavage was 0.05.
G33A U49C U60A gave a self-cleavage of 0.3.
For G33A U51A A65G U72A U80C, the self-cleavage was 0.06.
G33A U54A A56U showed a self-cleavage of 0.23.
In the case of G33A U58A U67A, the self-cleavage is reported as 0.39.
Variant G33A U67A U78C has a self-cleavage of 0.29.
G33A U67G U69C showed a self-cleavage of 0.15.
With G33C A35G U41C U43C U51G G70A U72A the self-cleavage was 0.09.
G33C A56G U72C showed a self-cleavage of 0.73.
For G33C A64G U72A, the self-cleavage was 0.13.
With G33C G42A U58C A77C the self-cleavage was 0.05.
G33C U43C A56G A65U showed a self-cleavage of 0.39.
With G33C U43C A64G the self-cleavage was 0.18.
For G33C U48C A64G U80C, the self-cleavage was 0.05.
G33C U49A U51A showed a self-cleavage of 0.07.
With G33C U51G G70A the self-cleavage was 0.07.
With G33C U66A A77U the self-cleavage was 0.12.
Work on G33U A35U U60C U66C yielded a self-cleavage of 0.16.
G33U A45U U49A A77G gave a self-cleavage of 0.12.
With G33U A47G U51A U66G the self-cleavage was 0.09.
In the case of G33U A47G U54A A57G, the self-cleavage is reported as 0.34.
With G33U A57C U60C A65G U76A U80C the self-cleavage was 0.07.
In the case of G33U A57G U76A, the self-cleavage is reported as 0.17.
In the case of G33U A64U U67C, the self-cleavage is reported as 0.15.

From the RNAGym collection of RNA variant scans (doi:10.1093/nar/gkz1192)
